In patent US7807641B2, “Methods and reagents for treating glucose metabolic disorders” (Curis, Inc., priority 1999, dated 2010):

Test system: E21 fetal islets
Assay: Glucose-stimulated insulin release (static insulin release, RIA) in cultured e21 fetal rat islets

## CC(C)Cn1c(=O)n(C)c(=O)c2[nH]cnc21 [IBMX]
1 μM IBMX, PYY 5 days, actinomycin D 0.1 μg/ml last 16 hours
  insulin exocytosis in islets treated with actinomycin D: can still induce insulin exocytosis

## Cc1c2oc3c(C)ccc(C(=O)N[C@@H]4C(=O)N[C@H](C(C)C)C(=O)N5CCC[C@H]5C(=O)N(C)CC(=O)N(C)[C@@H](C(C)C)C(=O)O[C@@H]4C)c3nc-2c(C(=O)N[C@@H]2C(=O)N[C@H](C(C)C)C(=O)N3CCC[C@H]3C(=O)N(C)CC(=O)N(C)[C@@H](C(C)C)C(=O)O[C@@H]2C)c(N)c1=O [Actinomycin D, actinomycin D] (I: T[dV]P[Sar][NMeV] / II: T[dV]P[Sar][NMeV]; ester I:1-I:C, II:1-II:C; linker I:N-II:N via Actinocin(9to1))
200 L/ml PYY for 5 days, actinomycin D at 0.1 μg/ml for the last 16 hours
  inhibition of the gain of function induced by PYY (insulin release): completely inhibit the gain of function induced by PYY

Numbered stars: 1 amine (or outer) side, 2 acyl side, 3 side chain; on linkers, the order of the positions; unused ones are H or OH. Bridge positions count the residues as written; N and C are the ends. Square brackets hold non-standard residues; d marks the D form. Peptide text beside a SMILES is read from it. I, II: the chains in the order shown. Actinocin(9to1) = Cc1c2oc3c(C)ccc(C(=O)[*:1])c3nc-2c(C(=O)[*:2])c(N)c1=O; NMeV = CN[C@H](C(=O)O)C(C)C; Sar = CNCC(=O)O
